Measured values taken from PubChem BioAssay AID504832 (National Center for Advancing Translational Sciences (NCATS), 2011).
Among all 310,000 compounds or so, about 18,000 (5.8%) were called active. Inconclusive results, whose numbers are uncertain, are shown with a selection of clear calls. Calls come from the whole dose curve; as a rule, active = well fitted inhibition curve with a large enough effect; inconclusive = small, poorly fitted or top-dose-only effect, or another doubt; inactive = no such curve, though single readings can be large or run the other way. Potencies of inconclusive entries are left out as doubtful fits.

Experiment: Primary qHTS for delayed death inhibitors of the malarial parasite plastid, 48 hour incubation
Conditions: P. falciparum luciferase growth in erythrocytes; series mostly up to 28.7 µM; activity change, negative = inhibition: at the top concentration
Method in brief: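 Compounds are pin-transferred into medium, infected erythrocytes (2% hematocrit, 0.1% parasitemia final) are added, and plates sit one parasite generation at 37 C in 5% CO2. Detection reagent is then added and luminescence measured.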
% is set by controls: 0 for no effect and ±100 for the full control effect; potency is the fitted concentration of half-maximal effect; tags give direction and shape of the fitted curve.

Row | Structure (SMILES) | Potency | activity change, negative = inhibition
1 | CCOC(=O)N1CCC(N(CCN(C)C)C(=S)Nc2cc(Cl)cc(Cl)c2)CC1 | inconclusive [inhibitor, single point] | 
2 | CCc1ccc(OCC(=O)NC(NC(=S)Nc2ccccc2OC)C(Cl)(Cl)Cl)cc1 (configuration not stated) | inconclusive [inhibitor, single point] | 
3 | Cc1ccc(S(=O)(=O)N2CCCNCC2)cc1 | inconclusive [inhibitor, partial curve, poor fit] | 
4 | C=CCN(c1ccccc1)S(=O)(=O)c1cccc(C(=O)OCC(=O)NCCOC)c1 |  | inactive: 108%
5 | COc1ccccc1N=C1SCC(=O)N1Cc1ccco1 |  | inactive: 0.954%
6 | Cn1c(SCC(=O)NC(C)(C)C)nnc1-c1ccc(C(C)(C)C)cc1 | inconclusive [inhibitor, partial curve, poor fit] | 
7 | COC(=O)c1ccccc1NC1=C/C(=N\S(=O)(=O)c2ccc(C(=O)O)cc2)c2ccccc2C1=O | active: 1.47 µM | 
8 | COCCNC(=O)C(c1ccc(C)o1)N(C(=O)c1snc(C(N)=O)c1N)c1ccc(C)cc1 (configuration not stated) | inconclusive [inhibitor, single point] | 
9 | Cc1ccc(NC(=O)N2CCC(NC(=O)C(C)(C)C)CC2)cc1 |  | inactive: 0%
10 | S=c1[nH]nc(-c2ccc(Br)cc2)n1-c1ccc2c(c1)OCCO2 | inconclusive [inhibitor, partial curve, poor fit] | 
11 | CCOc1ccccc1Nc1ncccc1C(=O)N1CCCC1 | inconclusive [inhibitor, partial curve] | 
12 | O=S(=O)(NCc1ccc2c(c1)OCO2)c1cccc2cccnc12 |  | inactive: -11%
13 | NC(=O)CC(NC(=O)Cc1ccc(Br)cc1)c1ccc(NCCc2ccc(F)cc2)c([N+](=O)[O-])c1 (configuration not stated) | inconclusive [inhibitor, single point] | 
14 | O=C(Nc1nccs1)c1cccc(N2C(=O)C3C4C=CC(C4)C3C2=O)c1 (configuration not stated) |  | inactive: 8.81%
15 | C=C(C)Cn1c(=O)c2c(nc3n2CCCN3CCc2ccccc2)n(C)c1=O | inconclusive [inhibitor, partial curve] | 
16 | N#Cc1nc(COc2ccc(Cl)cc2)oc1N1CCCCCC1 | inconclusive [inhibitor, partial curve] | 
17 | Cc1ccccc1NS(=O)(=O)c1ccc(C(=O)NCC(C)(C)N2CCOCC2)cc1 | inconclusive [inhibitor, single point] | 
18 | O=c1[nH]c(C(Cl)(Cl)Cl)nc2ccc3ccccc3c12 | inconclusive [inhibitor, single point] | 
19 | Cc1cc(C)c(S(=O)(=O)N2CCCCC2)c(C)c1N(C)S(=O)(=O)c1ccccc1 | inconclusive [inhibitor, partial curve, poor fit] | 
20 | O=C(C[n+]1ccc2ccccc2c1)Nc1cc(C(F)(F)F)ccc1Cl | active: 1.31 µM | 
21 | CCOC(=O)C1=C(COC(=O)CCOc2ccc(OC)cc2)NC(=O)NC1C (configuration not stated) |  | inactive: -23.3%

Row | Structure (SMILES) | Potency | activity change, negative = inhibition
22 | CCOc1ccc(CCNC(=O)CSc2cc(=O)n(C)c3ccccc23)cc1OCC | inconclusive [inhibitor, partial curve] | 
23 | CC(C)(CNC(=O)c1ccc(S(=O)(=O)Nc2ccc(Cl)cc2)cc1)N1CCOCC1 | inconclusive [inhibitor, single point] | 
24 | CCCC1=C(C(=O)OCC)C(c2ccc(OC)c(C)c2OC)C(C#N)=C(N)O1 (configuration not stated) | inconclusive [inhibitor, single point] | 
25 | S=C1NC2(CCS1)Oc1ccccc1C1CC(c3ccccc3)=NN12 (configuration not stated) | inconclusive [inhibitor, partial curve, poor fit] | 
26 | CCOc1ccc(-c2cc(CCCC(=O)Nc3cccc(OC)c3)no2)cc1 | inconclusive [inhibitor, partial curve] | 
27 | CCn1c(C)nc2c1C(=O)c1ccccc1C2=O | inconclusive [inhibitor, partial curve, poor fit] | 
28 | CN(C)CCCN(C(=O)c1ccc(S(=O)(=O)N2CCCCCC2)cc1)c1nc2cc3c(cc2s1)OCCO3 | inconclusive [inhibitor, single point] | 
29 | COc1cc2c(cc1OC)C1O[C@](c3ccsc3)(C2)Oc2cc(-c3ccccc3)oc(=O)c21 | inconclusive [inhibitor, partial curve, poor fit] | 
30 | COC(=O)C(C(=O)Nc1nc2ccccc2s1)C1CCCC1 (configuration not stated) |  | inactive: -2.28%
31 | O=C(c1ccccc1)c1ccc(N2CCN(C(=O)c3cccc(F)c3F)CC2)c(F)c1 | inconclusive [inhibitor, full curve, poor fit] | 
32 | COc1ccccc1C(=O)COC(=O)CN1C(=O)C2CC=CCC2C1=O (configuration not stated) |  | inactive: 20.7%
33 | CC(C)c1ccc(C(C(=O)NC(C)(C)C)N(C(=O)CNC(=O)c2ccco2)c2cccnc2)cc1 (configuration not stated) | inconclusive [inhibitor, single point] | 
34 | CC[n+]1c(/C=C/C=C/c2ccc(N(C)C)cc2)sc2ccccc21 |  | inactive: -10.6%
35 | Cc1ccc(-n2c(SCC(=O)N3CC(=O)Nc4ccccc43)nc3ccccc3c2=O)cc1 | active: 13.1 µM | 
36 | CCN(CC)c1ccc(NC(=O)CSc2nc3ccccc3c(=O)n2-c2cc(S(=O)(=O)N(C)C)ccc2C)cc1 | active: 8.28 µM | 
37 | CC(C)c1ccc(OCC(=O)NC2CCCC2)cc1 | inconclusive [inhibitor, partial curve, poor fit] | 
38 | COc1ccc(Br)cc1-c1noc(-c2ccncc2)n1 |  | inactive: 25.6%
39 | S=c1[nH]c2ccccc2n2cccc12 | inconclusive [inhibitor, single point] | 
40 | CCN(CC)c1ccc2c(C)c(CO)c(=O)oc2c1 | inconclusive [inhibitor, single point] | 
41 | O=C(Nc1cccc(Cl)c1)c1cc(S(=O)(=O)N2CCOCC2)cs1 | inconclusive [inhibitor, partial curve, poor fit] | 
42 | COCC(=O)Nc1ccc2c(c1)OCC(=O)N2Cc1ccc(C)cc1 | inconclusive [inhibitor, partial curve, poor fit] | 
